{"source": "PubChem BioAssay AID2675", "about": "(National Center for Advancing Translational Sciences (NCATS), 2010)", "note": "Screen size: about 280,000 compounds; about 100 (0.036%) were called active. The inconclusive results got no clear call from the source; some entries with a clear call stand among them for comparison. Calls come from the whole dose curve; as a rule, active = well fitted inhibition curve with a large enough effect in the signal ratio, with a control signal flat (not every such curve was filed as active); inconclusive = small, poorly fitted or top-dose-only effect, or effect the other way, or a change in a side signal; inactive = no such curve, though single readings can be large or run the other way; the % refers to the signal ratio. Where the call is inconclusive, the potency comes from a doubtful curve fit. A note “side channel” means that the fit belongs to a control or component signal, not to the main read-out. % is set by controls: 0 for no effect and ±100 for the full control effect; potency is the fitted concentration of half-maximal effect; tags give direction and shape of the fitted curve or compound fluorescence and quenching.", "data": [{"biological_target": "Muscleblind-like protein 1 (Homo sapiens) (UniProt Q9NR56)", "sequence (Q9NR56 whole entry, looked up)": "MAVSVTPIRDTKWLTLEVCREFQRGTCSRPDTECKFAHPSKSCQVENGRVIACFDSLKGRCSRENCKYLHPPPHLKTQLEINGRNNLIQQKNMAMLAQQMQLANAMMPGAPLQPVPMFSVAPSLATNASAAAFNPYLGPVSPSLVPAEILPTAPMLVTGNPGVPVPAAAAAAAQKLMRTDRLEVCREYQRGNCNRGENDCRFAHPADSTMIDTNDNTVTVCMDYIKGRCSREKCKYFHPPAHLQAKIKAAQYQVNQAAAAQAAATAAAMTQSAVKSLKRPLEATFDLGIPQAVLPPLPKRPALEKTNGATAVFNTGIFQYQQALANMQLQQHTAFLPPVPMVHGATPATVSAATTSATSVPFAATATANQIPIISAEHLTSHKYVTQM", "test": "qHTS Assay for Inhibitors of MBNL1-poly(CUG) RNA binding", "details": "TR-FRET MBNL1-His/biotin-(CUG)12 binding, 665/545 ratio; activity change, negative = inhibition: at 57.5 µM (top of the series)", "in_short": "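MBNL1-His + Biotin-(CUG)12, cpd titration 92 nM–58 uM; Tb anti-His Ab 0.055 ng/ul, SA-XL665 5 nM (final); 60 min RT; ratiometric 665/545 nm, Ex 340 nm; normalized to buffer and full-complex controls.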", "values": [{"smiles": "Cc1nc(Cl)sc1C(=O)Nc1ccc(C(C)(C)C)cc1", "activity change, negative = inhibition": "inactive: -7.94%"}, {"smiles": "COc1ccc(-c2ccc(CCC(=O)O)n2NC(N)=O)cc1", "activity change, negative = inhibition": "inactive: -15.6%"}, {"smiles": "COc1ccc(NC(=O)/C(C#N)=C\\C=C\\c2ccco2)cc1", "Potency": "inconclusive: 5.62 µM [quencher, side channel, full curve]"}, {"smiles": "O=C1c2ccccc2C(=O)c2c1ccc1c(=O)n(C3CCCCC3)[nH]c21", "Potency": "inconclusive: 0.891 µM [quencher, side channel, full curve]"}, {"smiles": "Cc1cccn2c(=O)c(C=O)c(Cl)nc12", "Potency": "inconclusive: 15.8 µM [quencher, side channel, partial curve]"}, {"smiles": "COc1ccc(-c2cc(C(F)F)n3ncc(C(=O)N4CCN5CCCC5C4)c3n2)cc1", "note": "(configuration not stated)", "Potency": "inconclusive: 12.6 µM [quencher, side channel, partial curve]"}, {"smiles": "O=C1ON=C(c2ccccc2)/C1=C/c1ccco1", "activity change, negative = inhibition": "inactive: 12.7%"}, {"smiles": "Cc1ccc(-c2cn3cccnc3n2)cc1NC(=O)c1cccs1", "Potency": "inconclusive: 15.8 µM [quencher, side channel, partial curve]"}, {"smiles": "O=c1[nH][nH]c(C(F)(F)F)c1C=Nc1cccc(Cl)c1", "activity change, negative = inhibition": "inactive: -7.77%"}, {"smiles": "Cc1ccc(N2CC(C(=O)N/N=C/c3sccc3C)CC2=O)cc1", "note": "(configuration not stated)", "Potency": "inconclusive: 39.8 µM [quencher, side channel, single point]"}, {"smiles": "CC(=O)C1=C(O)C(=O)N(c2ccc(S(N)(=O)=O)cc2)C1c1ccc([N+](=O)[O-])cc1", "note": "(configuration not stated)", "Potency": "inconclusive: 11.2 µM [quencher, side channel, partial curve]"}, {"smiles": "CCOc1ccc(Nc2nc(NCC3CCCO3)c3ccccc3n2)cc1", "note": "(configuration not stated)", "Potency": "inconclusive: 126 µM [inhibitor, partial curve]"}, {"smiles": "CC(C)OCC(O)CN1CCN(CCN2C(=O)c3cccc4cccc(c34)C2=O)CC1", "note": "(configuration not stated)", "Potency": "inconclusive: 15.8 µM [quencher, side channel, partial curve]"}, {"smiles": "CCN(CC)CCNC(=O)c1ccccc1N", "activity change, negative = inhibition": "inactive: 7.85%"}, {"smiles": "COc1ccc(CCN(Cc2cccs2)S(=O)(=O)c2ccc(S(=O)(=O)N3CCCCCC3)cc2)cc1OC", "Potency": "inconclusive: 22.4 µM [fluorescent, side channel, partial curve, poor fit]"}, {"smiles": "COc1ccc(-c2cc(=O)oc3c(C)c(O)c(CN(C)C)cc23)cc1", "Potency": "inconclusive: 15.8 µM [quencher, side channel, partial curve]"}, {"smiles": "Cc1nn(C(C)C(=O)N2CCOCC2)c(C)c1[N+](=O)[O-]", "note": "(configuration not stated)", "Potency": "inconclusive: 25.1 µM [fluorescent, side channel, partial curve]"}, {"smiles": "COc1cc(/C=C2\\S/C(=N/S(=O)(=O)Cc3ccccc3)NC2=O)c([N+](=O)[O-])cc1OC", "Potency": "inconclusive: 14.1 µM [quencher, side channel, partial curve]"}, {"smiles": "Cc1c(NC(=O)CSc2ccc3c(c2)OCCO3)c(=O)n(-c2ccccc2)n1C", "activity change, negative = inhibition": "inactive: -11.7%"}, {"smiles": "O=[N+]([O-])c1cccc(-c2cnc3ccccc3n2)c1", "Potency": "inconclusive: 1.78 µM [quencher, side channel, full curve, poor fit]"}, {"smiles": "Cc1cccc(OCC(=O)N2CCN(C(=O)c3ccc([N+](=O)[O-])cc3)CC2)c1", "Potency": "inconclusive: 25.1 µM [quencher, side channel, partial curve]"}, {"smiles": "Cc1ccc([N+](=O)[O-])cc1NC(=O)c1ccccc1", "Potency": "inconclusive: 35.5 µM [quencher, side channel, single point]"}, {"smiles": "O=C(NCCc1c[nH]c2ccccc12)c1cc2ccccc2oc1=O", "Potency": "inconclusive: 20 µM [quencher, side channel, partial curve]"}, {"smiles": "Nc1cccc(-c2cnc3ccccc3n2)c1", "Potency": "inconclusive: 28.2 µM [quencher, side channel, partial curve]"}, {"smiles": "COc1ccc(/C=N\\NC(=O)c2sc(N)nc2C)cc1OC", "Potency": "inconclusive: 20 µM [quencher, side channel, partial curve]"}, {"smiles": "Cc1ccc(S(=O)(=O)N2CCN(CC(=O)N/N=C/c3cc([N+](=O)[O-])ccc3Cl)CC2)cc1", "Potency": "inconclusive: 10 µM [quencher, side channel, partial curve]"}, {"smiles": "O=C(c1ccccc1)c1nc[nH]c1C(=O)Nc1ccccn1", "Potency": "inconclusive: 22.4 µM [quencher, side channel, partial curve]"}, {"smiles": "O=[N+]([O-])c1cccc(S(=O)(=O)NCC2CC3CCC2C3)c1", "note": "(configuration not stated)", "Potency": "inconclusive: 14.1 µM [quencher, side channel, partial curve]"}, {"smiles": "CCOC(=O)c1csc(N)c1-c1ccc([N+](=O)[O-])cc1", "Potency": "inconclusive: 15.8 µM [quencher, side channel, partial curve]"}, {"smiles": "CCCCN(CC)CCNC(=O)c1cn(-c2ccc(Cl)cc2)c(=O)c2ccccc12", "activity change, negative = inhibition": "inactive: -9.13%"}, {"smiles": "CC(=O)Oc1c(-c2ccc(Br)o2)oc2ccccc2c1=O", "Potency": "inconclusive: 28.2 µM [quencher, partial curve]"}, {"smiles": "C/C(CC(=O)Nc1ccc(N(C)C)cc1)=N\\NC(=O)c1ccc([N+](=O)[O-])cc1Cl", "Potency": "inconclusive: 14.1 µM [quencher, side channel, partial curve]"}, {"smiles": "Nn1cnnc1N/N=C/c1ccc(Cl)cc1Cl", "Potency": "inconclusive: 31.6 µM [quencher, side channel, single point]"}, {"smiles": "O=C(c1ccccc1)c1ccc2cc(O)ccc2c1", "Potency": "inconclusive: 28.2 µM [quencher, side channel, single point]"}, {"smiles": "Cc1csc(N/N=C/c2ccccn2)n1", "Potency": "inconclusive: 39.8 µM [quencher, side channel, single point]"}, {"smiles": "COc1ccc(C2NC(C(=O)O)CS2)cc1COCC(F)(F)F", "note": "(configuration not stated)", "activity change, negative = inhibition": "inactive: -1.59%"}, {"smiles": "c1ccc2c(c1)nc(NCc1ccc3c(c1)OCO3)n2CCN1CCOCC1", "activity change, negative = inhibition": "inactive: -10%"}, {"smiles": "Nc1cc(=O)[nH]c(SCc2ccc(Cl)cc2)n1", "activity change, negative = inhibition": "inactive: -0.689%"}, {"smiles": "NS(=O)(=O)c1ccc(NC(=O)/C=C/c2ccccc2[N+](=O)[O-])cc1", "Potency": "inconclusive: 14.1 µM [quencher, side channel, partial curve]"}, {"smiles": "Cn1c(CN2CCN(C(=O)c3ccccc3Cl)CC2)nc2cc([N+](=O)[O-])ccc21", "Potency": "inconclusive: 15.8 µM [quencher, partial curve]"}, {"smiles": "COc1ccc(OC)c(NC(=O)CSCc2cnn(-c3ccccc3)c2-n2cccc2)c1", "activity change, negative = inhibition": "inactive: 8.96%"}, {"smiles": "Cn1c2ccccc2c(=O)n2c(=O)c3ccccc3cc12", "Potency": "inconclusive: 20 µM [quencher, side channel, partial curve]"}, {"smiles": "N#C/C(=C\\c1ccc(OCc2ccccc2)cc1)C(N)=O", "Potency": "inconclusive: 22.4 µM [quencher, side channel, partial curve]"}, {"smiles": "COC(=O)CSc1nc(-c2ccc(F)cc2)cc(C(F)(F)F)n1", "Potency": "inconclusive: 1 µM [quencher, side channel, full curve]"}, {"smiles": "O=C(COc1ccc([N+](=O)[O-])cc1)NNC(=O)c1cccnc1", "Potency": "inconclusive: 25.1 µM [quencher, side channel, partial curve]"}, {"smiles": "CCCCNC(=O)Cn1cnc([N+](=O)[O-])n1", "Potency": "inconclusive: 28.2 µM [quencher, single point]"}, {"smiles": "Cn1ccnc1Sc1ccccc1[N+](=O)[O-]", "Potency": "inconclusive: 20 µM [quencher, side channel, partial curve]"}, {"smiles": "Cc1cc([N+](=O)[O-])ccc1NC(=O)CN1CCN(Cc2ccccc2)CC1", "Potency": "inconclusive: 15.8 µM [quencher, side channel, partial curve]"}, {"smiles": "CCc1nnc(NC(=O)c2cc3ccccc3oc2=O)s1", "Potency": "inconclusive: 2.82 µM [quencher, full curve]"}, {"smiles": "CC1CCN(CCNC(=O)C2CCN(S(=O)(=O)c3cccc4nsnc34)CC2)CC1", "Potency": "inconclusive: 14.1 µM [quencher, partial curve]"}, {"smiles": "O=S(=O)(N/N=C\\c1ccc(-c2ccccc2Cl)o1)c1ccccc1", "Potency": "active: 20 µM"}, {"smiles": "Cc1ccc(-c2nnc(Nc3ccc(C(=O)N(C)C)cc3)c3ccccc23)cc1S(=O)(=O)NCC1CCCO1", "note": "(configuration not stated)", "Potency": "inconclusive: 14.1 µM [activator, single point]"}, {"smiles": "COc1ccc2cc3cc(C(=O)NCc4cccnc4)oc3nc2c1", "Potency": "inconclusive: 14.1 µM [quencher, partial curve]"}, {"smiles": "Cn1c(=O)c2[nH]c(NCC3CCCO3)nc2n(-c2ccccc2)c1=O", "note": "(configuration not stated)", "Potency": "inconclusive: 0.282 µM [quencher, side channel, full curve, poor fit]"}, {"smiles": "O=C(O)c1nnn(-c2ccc([N+](=O)[O-])cc2)c1-c1ccccc1", "Potency": "inconclusive: 15.8 µM [quencher, side channel, partial curve]"}, {"smiles": "Cn1nc([N+](=O)[O-])nc1S(C)(=O)=O", "Potency": "inconclusive: 12.6 µM [quencher, side channel, partial curve]"}, {"smiles": "CCN(CC)C(=O)COC(=O)c1cc(-c2ccco2)nc2ccccc12", "Potency": "inconclusive: 14.1 µM [quencher, partial curve]"}, {"smiles": "O=C(CCS(=O)(=O)c1cccc2nsnc12)NC1CCCCC1", "Potency": "inconclusive: 3.55 µM [quencher, side channel, partial curve]"}, {"smiles": "COc1ccc(-n2c(SCC(=O)Nc3ccccc3)nc3c(c2=O)SCC3)cc1", "Potency": "inconclusive: 25.1 µM [quencher, side channel, partial curve]"}, {"smiles": "COc1cccc(-c2cc(C(=O)NC3CCCCC3)no2)c1", "activity change, negative = inhibition": "inactive: 0.579%"}, {"smiles": "CC(C)c1cc(NC(=O)CCl)on1", "activity change, negative = inhibition": "inactive: -2.21%"}, {"smiles": "Cc1cc(C=O)c(C)n1-c1ccc(NC2CCCCC2)c([N+](=O)[O-])c1", "Potency": "inconclusive: 17.8 µM [quencher, side channel, partial curve]"}]}]}
